# This list was built around the results that the source calls inconclusive (neither active nor inactive); the mix of calls is not that of the screen. Calls of active or inactive are those of the source.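 Rule for the calls, unless noted: active = thallium flux slope more than 3 SD above or below the plate's solvent-only control mean, mostly below; inconclusive = the two repeat wells disagreed; inactive = no significant shift from solvent-only controls.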
# Test system: not listed separately
# Experiment: FluoZin2 fluorescence counter-screen of MLSMR hits on KCC2-expressing cells (AID 1714;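 active = thallium entry rate above the same plate's blocked-transporter control wells by more than 3 SD; inconclusive = the two repeat wells disagree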;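 note: raw slope of fluorescence over initial fluorescence between 10 and 20 s after thallium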)
# Details: HEK293-KCC2 + bumetanide/ouabain, at 10 µM, stronger effect = higher value
# Outline: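 Test system: HEK cells expressing the K-Cl cotransporter KCC2. Timing: overnight culture 37 °C, dye loading 48 min. Technique: FluoZin2-AM (0.5 µM) fluorescence, 480 nm ex/540 nm em, 1 Hz kinetic imaging. Repeats: duplicates.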
row,SMILES,normalized thallium flux
1,O=C(O)c1cc([N+](=O)[O-])ccc1N1CCC(Cc2ccccc2)CC1,inconclusive: 0.00842
2,CSCCC(NC(=O)c1ccc([N+](=O)[O-])cc1Cl)C(=O)OCC(=O)NCCCc1ccccc1 (stereo unspecified),inconclusive: 0.00642
3,O=[N+]([O-])c1cc(Br)c(O)c(/C=N/Nc2nnnn2-c2cccc3ccccc23)c1,inactive: 0.00398
4,O=C(NC(=S)Nc1ccc(CN2CCOCC2)cc1)c1ccc(-c2ccc(Br)cc2)o1,inactive: 0.00631
5,CC(C)CC(c1nnnn1Cc1cccs1)N1CCN(c2nc3ccccc3s2)CC1 (stereo unspecified),inactive: 0.00498
6,O=C(COC(=O)c1cc([N+](=O)[O-])ccc1NCCO)c1ccccc1,inconclusive: 0.00545
7,Cc1onc(C(=O)N2CCN(Cc3ccccc3)CC2)c1[N+](=O)[O-],inactive: 0.00654
8,Cc1ccc(Nc2nc(=O)c3cccnc3s2)c(Br)c1,active: 0.0384
9,COc1ccc(NC(=S)NCCCc2ccccc2)cc1,inconclusive: 0.00571
10,N#C/C(=C(/O)c1cccc(F)c1)c1nc2ccccc2s1,inactive: 0.00602
11,Cc1ccc(COc2ccccc2-c2cc(C(=O)N/N=C/c3cccnc3)[nH]n2)cc1,inactive: 0.00553
12,Cc1ccc(OC/C(O)=C(\C#N)c2nc3ccccc3s2)cc1,active: 0.00675
13,CCN(CCCNC(=O)COc1cc(=O)n(CC)c2ccccc12)c1ccccc1,inactive: 0.00425
14,O=C(NC1CCCC1)c1ccccc1OCc1ccccc1,inconclusive: 0.0037
15,CC(C(=O)N=c1sc2ccccc2n1C)N1C(=O)C2CC=CCC2C1=O (stereo unspecified),inconclusive: 0.00544
16,O=C(O)CC/C(=C\c1ccccc1[N+](=O)[O-])c1nc2ccccc2s1,inactive: 0.00715
17,O=C1c2oc3ccccc3c(=O)c2C(c2cccc(F)c2)N1CCCO (stereo unspecified),inconclusive: 0.005
18,O=C1c2ccccc2C(Nc2ccc(S(=O)(=O)N3CCCCC3)cc2)N1Cc1ccco1 (stereo unspecified),inactive: 0.00428
19,O=[N+]([O-])c1cccc(/C=N/NC2=NS(=O)(=O)c3ccccc32)c1,inconclusive: 0.00797
20,O=C(O)CCc1cc(I)c(Oc2ccc(O)c(I)c2)c(I)c1,inconclusive: 0.00552
21,Cc1cccc(-c2nc(CS(=O)CC(=O)N3CCc4ccccc4C3)c(C)o2)c1 (stereo unspecified),inactive: 0.00533
22,Cn1c(NCCCO)nc2c1c(=O)n(Cc1ccccc1F)c(=O)n2C,inconclusive: 0.00817
23,CC(=O)Nc1ccc2nc(NC(=O)c3cccs3)sc2c1,inconclusive: 0.00576
24,CCC(Oc1ccccc1)C(=O)Nc1ncc([N+](=O)[O-])s1 (stereo unspecified),inconclusive: 0.00754
25,CC(OC(=O)c1cc2sccc2n1C)C(=O)NCCc1ccccc1 (stereo unspecified),inconclusive: 0.00776
26,CCN1C/C(=C/c2ccc(N3CCOCC3)cc2)C(=O)/C(=C/c2ccc(N3CCOCC3)cc2)C1,active: 0.00161

# Molecular target: Solute carrier family 12 member 5 (Homo sapiens) (UniProt Q9H2X9)
# Experiment: retest of KCC2 transport modulation, ouabain-free – cell-based, HEK293 KCC2, thallium flux, FluoZin2, secondary assay 2, confirmation (AID 1715);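 note: raw slope with 0.1% DMSO as baseline and bumetanide as block control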
# Details: HEK293-KCC2, thallium flux FluoZin2 fluorescence; at 10 µM; actives lie on both sides; F/F0 rise rate, 10–20 s post-thallium
# Chain of UniProt Q9H2X9 (Q9H2X9 whole entry, looked up): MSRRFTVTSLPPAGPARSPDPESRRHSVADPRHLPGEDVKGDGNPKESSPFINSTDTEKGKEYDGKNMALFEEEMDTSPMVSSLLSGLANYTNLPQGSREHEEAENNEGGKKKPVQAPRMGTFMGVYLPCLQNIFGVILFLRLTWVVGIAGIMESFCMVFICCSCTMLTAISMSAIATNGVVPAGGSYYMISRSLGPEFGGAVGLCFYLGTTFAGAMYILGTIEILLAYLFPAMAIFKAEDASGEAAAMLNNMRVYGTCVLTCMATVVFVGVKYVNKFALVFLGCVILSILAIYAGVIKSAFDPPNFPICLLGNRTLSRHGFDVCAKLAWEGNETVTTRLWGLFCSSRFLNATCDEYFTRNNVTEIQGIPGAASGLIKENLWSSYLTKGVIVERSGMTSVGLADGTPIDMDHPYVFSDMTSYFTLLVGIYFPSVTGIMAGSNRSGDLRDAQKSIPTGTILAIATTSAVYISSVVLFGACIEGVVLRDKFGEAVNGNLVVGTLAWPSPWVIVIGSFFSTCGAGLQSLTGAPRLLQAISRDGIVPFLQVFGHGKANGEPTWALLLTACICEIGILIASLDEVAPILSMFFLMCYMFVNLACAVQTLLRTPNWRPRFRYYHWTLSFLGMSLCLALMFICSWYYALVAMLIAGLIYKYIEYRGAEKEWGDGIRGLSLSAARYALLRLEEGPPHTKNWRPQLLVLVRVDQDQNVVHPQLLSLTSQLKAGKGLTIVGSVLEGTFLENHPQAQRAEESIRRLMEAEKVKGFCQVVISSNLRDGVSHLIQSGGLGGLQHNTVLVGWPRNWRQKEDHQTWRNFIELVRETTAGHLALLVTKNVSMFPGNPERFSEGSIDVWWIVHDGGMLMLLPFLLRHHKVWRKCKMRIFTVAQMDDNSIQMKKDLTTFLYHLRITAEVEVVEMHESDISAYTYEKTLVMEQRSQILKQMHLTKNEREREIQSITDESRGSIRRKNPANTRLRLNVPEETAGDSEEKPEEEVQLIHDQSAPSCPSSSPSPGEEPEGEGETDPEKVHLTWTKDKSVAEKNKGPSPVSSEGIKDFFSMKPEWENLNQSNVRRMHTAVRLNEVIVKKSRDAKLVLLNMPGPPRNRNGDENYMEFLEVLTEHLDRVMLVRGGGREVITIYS
row,SMILES,normalized thallium flux
1,Cc1ccc(CN(C)C(=O)c2cc(COc3ccc(F)cc3Cl)on2)o1,active: 0.0258
2,Cc1nc(N2CCN(Cc3ccccc3)CC2)nc2c1C(=O)CCC2,inconclusive: 0.0256
3,COc1ccc(CN(C(=O)c2ccc(-c3ccccc3)[nH]2)C(C(=O)NC(C)(C)C)c2ccncc2)cc1 (stereo unspecified),inconclusive: 0.0302
4,Cc1noc(C)c1CSc1ncnc2sc3c(c12)CCCCC3,inconclusive: 0.0374
5,CCOc1cc(-c2noc(CCCC(N)=O)n2)cc(Br)c1OC,inactive: 0.0284
6,CC1Cc2ccccc2N1C(=O)c1ccc(N2CCCCC2)c([N+](=O)[O-])c1 (stereo unspecified),inconclusive: 0.0254
7,CCOc1ccc(N2C(=O)C3Sc4[nH]c(=O)sc4C(/C=C/c4ccccc4)C3C2=O)cc1 (stereo unspecified),active: 0.0188
8,O=C(Cn1nc2ccccc2n1)N/N=C/c1cc(Cl)cc([N+](=O)[O-])c1O,active: 0.0248
9,CC/C(Cc1ccccc1)=N\NC(=O)c1cc([N+](=O)[O-])cc([N+](=O)[O-])c1,inconclusive: 0.0335
10,COc1cccc(CNC(=O)CSc2ccc(-c3cccs3)nn2)c1,inconclusive: 0.0262
11,Cc1ccc(S(=O)(=O)N(C)c2ccc(C(=O)N3CCc4ccccc4C3)cc2)cc1,active: 0.0236
12,Cc1ccc(-c2csc3ncn(CC(=O)N4CCOCC4)c(=O)c23)cc1C,inactive: 0.0356
13,O=S(=O)(NC1CCCC1)c1cccc(S(=O)(=O)N2CCC(n3nnc4ccccc43)CC2)c1,inconclusive: 0.0269
14,CCc1cccc(CC)c1NC(=S)NCCc1c(C)[nH]c2ccccc12,inactive: 0.033
15,O=C(O)c1cc([N+](=O)[O-])ccc1N1CCC(Cc2ccccc2)CC1,inconclusive: 0.0291
16,CSCCC(NC(=O)c1ccc([N+](=O)[O-])cc1Cl)C(=O)OCC(=O)NCCCc1ccccc1 (stereo unspecified),active: 0.0263
17,O=[N+]([O-])c1cc(Br)c(O)c(/C=N/Nc2nnnn2-c2cccc3ccccc23)c1,inconclusive: 0.0276
18,O=C(NC(=S)Nc1ccc(CN2CCOCC2)cc1)c1ccc(-c2ccc(Br)cc2)o1,inactive: 0.0329
19,CC(C)CC(c1nnnn1Cc1cccs1)N1CCN(c2nc3ccccc3s2)CC1 (stereo unspecified),inconclusive: 0.0288
20,O=C(COC(=O)c1cc([N+](=O)[O-])ccc1NCCO)c1ccccc1,active: 0.0234

row,SMILES,normalized thallium flux
1,Cc1onc(C(=O)N2CCN(Cc3ccccc3)CC2)c1[N+](=O)[O-],inconclusive: 0.0295
2,Cc1ccc(Nc2nc(=O)c3cccnc3s2)c(Br)c1,inconclusive: 0.0374
3,COc1ccc(NC(=S)NCCCc2ccccc2)cc1,active: 0.0229
4,N#C/C(=C(/O)c1cccc(F)c1)c1nc2ccccc2s1,inconclusive: 0.0291
5,Cc1ccc(COc2ccccc2-c2cc(C(=O)N/N=C/c3cccnc3)[nH]n2)cc1,inconclusive: 0.0306
6,Cc1ccc(OC/C(O)=C(\C#N)c2nc3ccccc3s2)cc1,active: 0.0222
7,CCN(CCCNC(=O)COc1cc(=O)n(CC)c2ccccc12)c1ccccc1,inconclusive: 0.028
8,O=C(NC1CCCC1)c1ccccc1OCc1ccccc1,inactive: 0.0273
9,CC(C(=O)N=c1sc2ccccc2n1C)N1C(=O)C2CC=CCC2C1=O (stereo unspecified),inconclusive: 0.0272
10,O=C(O)CC/C(=C\c1ccccc1[N+](=O)[O-])c1nc2ccccc2s1,inconclusive: 0.0266
11,O=C1c2oc3ccccc3c(=O)c2C(c2cccc(F)c2)N1CCCO (stereo unspecified),inactive: 0.0288
12,O=C1c2ccccc2C(Nc2ccc(S(=O)(=O)N3CCCCC3)cc2)N1Cc1ccco1 (stereo unspecified),inconclusive: 0.0266
13,O=[N+]([O-])c1cccc(/C=N/NC2=NS(=O)(=O)c3ccccc32)c1,inactive: 0.0306
14,O=C(O)CCc1cc(I)c(Oc2ccc(O)c(I)c2)c(I)c1,active: 0.0247
15,Cc1cccc(-c2nc(CS(=O)CC(=O)N3CCc4ccccc4C3)c(C)o2)c1 (stereo unspecified),inconclusive: 0.0253
16,Cn1c(NCCCO)nc2c1c(=O)n(Cc1ccccc1F)c(=O)n2C,inactive: 0.0274
17,CC(=O)Nc1ccc2nc(NC(=O)c3cccs3)sc2c1,inactive: 0.0302
18,CCC(Oc1ccccc1)C(=O)Nc1ncc([N+](=O)[O-])s1 (stereo unspecified),inactive: 0.0326
19,CC(OC(=O)c1cc2sccc2n1C)C(=O)NCCc1ccccc1 (stereo unspecified),inconclusive: 0.0288
20,CCN1C/C(=C/c2ccc(N3CCOCC3)cc2)C(=O)/C(=C/c2ccc(N3CCOCC3)cc2)C1,active: 0.0297
